# Measured values reported in PubChem BioAssay AID1460 (National Center for Advancing Translational Sciences (NCATS), 2008).
# Out of some 270,000 compounds screened, about 5,800 (2.1%) were called active. The shares of active, inactive and inconclusive entries below differ from those in the screen. Calls follow the shape of the dose curve; as a rule, active = well fitted inhibition curve with a large enough effect; inconclusive = small, poorly fitted or top-dose-only effect; inactive = flat fitted curve, though single readings scatter. Where the call is inconclusive, the potency comes from a doubtful curve fit.
# Molecular target: Microtubule-associated protein tau (Homo sapiens) (UniProt P10636)
# UniProt P10636, sequence (P10636 whole entry, looked up): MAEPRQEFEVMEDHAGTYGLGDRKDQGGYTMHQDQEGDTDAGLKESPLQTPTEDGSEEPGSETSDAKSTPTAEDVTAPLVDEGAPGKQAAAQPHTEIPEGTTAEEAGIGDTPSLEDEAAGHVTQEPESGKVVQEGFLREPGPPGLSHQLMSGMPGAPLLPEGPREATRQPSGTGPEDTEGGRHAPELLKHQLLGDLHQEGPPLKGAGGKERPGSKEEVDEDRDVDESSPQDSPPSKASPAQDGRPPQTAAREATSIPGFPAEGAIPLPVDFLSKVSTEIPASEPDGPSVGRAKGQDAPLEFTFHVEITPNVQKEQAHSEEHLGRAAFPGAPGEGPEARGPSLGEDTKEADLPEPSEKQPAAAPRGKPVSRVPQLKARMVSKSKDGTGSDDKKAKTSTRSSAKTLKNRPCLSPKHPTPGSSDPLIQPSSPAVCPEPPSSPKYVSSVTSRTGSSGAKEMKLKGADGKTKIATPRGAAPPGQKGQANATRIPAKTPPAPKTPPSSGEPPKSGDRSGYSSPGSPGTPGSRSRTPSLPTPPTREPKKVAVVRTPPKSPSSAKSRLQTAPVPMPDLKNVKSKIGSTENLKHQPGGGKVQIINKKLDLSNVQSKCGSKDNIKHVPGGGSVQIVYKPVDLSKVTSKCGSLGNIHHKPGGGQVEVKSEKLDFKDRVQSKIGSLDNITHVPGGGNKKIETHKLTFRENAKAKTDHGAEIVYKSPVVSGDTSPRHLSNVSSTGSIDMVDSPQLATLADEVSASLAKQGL
# Assay: qHTS for Inhibitors of Tau Fibril Formation, Thioflavin T Binding; also: nearly all actives have a fitted effect of over 55% in size
# Conditions: recombinant tau K18 P301L, heparin-induced fibrillization, ThT fluorescence; series mostly up to 57.4 µM
# In short: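 Fibril formation assay: tau K18 P301L at 15 uM with trace Alexa 594 label, heparin inducer 20 uM, pH 7 sodium acetate buffer, 37 C for 6 hr; endpoint ThT signal.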
# Potency is read from the fitted curve at half-maximal effect; tags tell the direction and shape of the fitted curve.
row,SMILES,Potency
1,Cc1cc(C(=O)N/N=C/C=C/c2ccccc2[N+](=O)[O-])c(C)o1,"inconclusive: 14.1 µM [inhibitor, single point]"
2,Nc1c(C(=O)NCCC2=CCCCC2)sc2ccc(S(=O)(=O)N3CCCCC3)cc12,"inconclusive: 14.1 µM [inhibitor, partial curve]"
3,COCCn1c(SCC(=O)Nc2ccc3[nH]c(=O)[nH]c3c2)nc2ccccc2c1=O,"inconclusive: 17.8 µM [inhibitor, single point]"
4,Cc1c(C(=O)OC/C(O)=C(\C#N)c2nc3ccccc3[nH]2)oc2ccc(Br)cc12,"inconclusive: 3.16 µM [inhibitor, full curve]"
5,O=C1/C(=C/c2cccs2)N=C(c2cccs2)N1Nc1ccccc1,active: 7.08 µM
6,O=S(=O)(NC1CCCC1)c1ccc(S(=O)(=O)N2CCc3ccccc32)cc1,inactive
7,O=C(Nc1ccc2nc(-c3ccco3)c(-c3ccco3)nc2c1)N1CCN(c2ccccn2)CC1,inactive
8,Nc1ccc(S(=O)(=O)NC2=NCCCCC2)cc1,inactive
9,CCOC(=O)C1CCC2(CC1)C(C#N)=C(N)Oc1n[nH]c(C)c12 (stereo not drawn),inactive
10,COc1ccc(N2C(=O)CC(N3CCC(O)(c4cccc(C(F)(F)F)c4)CC3)C2=O)cc1 (stereo not drawn),inactive
11,CN1C(=O)NC(c2ccccc2)C2=C1CN(c1cccc(C(F)(F)F)c1)C2=O (stereo not drawn),inactive
12,Cc1c2c(nc3ccccc13)CCC(C(C)(C)C)C2 (stereo not drawn),"inconclusive: 11.2 µM [inhibitor, partial curve]"
13,C#CCOCCOCCOCCNc1nc(N2CCOCC2)nc(N2CCN(C(=O)[C@H](Cc3cc4ccccc4[nH]3)n3cc([C@@H](N)C(C)CC)nn3)CC2)n1 (stereo partly drawn),inactive
14,Cc1cc(NC(=O)Nc2csc3c2CCCC3)ccc1Br,"inconclusive: 0.708 µM [inhibitor, full curve, poor fit]"
15,Cc1c(NC(=O)c2ccc(N3CCC(C)CC3)c([N+](=O)[O-])c2)cccc1-c1nc2ccccc2o1,"inconclusive: 5.01 µM [inhibitor, full curve]"
16,CCCc1ccc(OCC(O)CN2CCN(c3ccccc3)CC2)cc1 (stereo not drawn),"inconclusive: 14.1 µM [inhibitor, partial curve]"
17,O=C(Cn1cc([N+](=O)[O-])cn1)NCc1ccco1,"inconclusive: 20 µM [inhibitor, single point]"
18,Cn1c(N)c(C(=O)COC(=O)COc2ccc(C#N)cc2)c(=O)n(C)c1=O,"inconclusive: 3.16 µM [inhibitor, partial curve, poor fit]"
19,Cc1ccc(-n2c(O)c(/C=N/Nc3ccc(S(=O)(=O)N4CCOCC4)cc3[N+](=O)[O-])c3ccccc3c2=O)c(C)c1,active: 12.6 µM
20,Cc1cccc(C(=O)O/N=C(\N)c2cccc([N+](=O)[O-])c2)c1,"inconclusive: 22.4 µM [inhibitor, partial curve, poor fit]"
21,O=C(c1ccco1)N1CCN(C(=O)N2c3ccccc3Sc3ccccc32)CC1,"inconclusive: 31.6 µM [inhibitor, partial curve]"
22,COc1ccc(C(=O)C2CCN(C(=S)NCCc3ccc(OC)c(OC)c3)CC2)cc1,"inconclusive: 31.6 µM [inhibitor, single point]"

row,SMILES,Potency
1,C=C1C(=O)C=C2CN(C(=O)c3ccccc3)[C@@](Cc3ccc(OC)cc3)(C(=O)OC)[C@@H]12,"inconclusive: 3.16 µM [inhibitor, full curve]"
2,Cc1noc(/C=C/Nc2ccc(F)cc2F)c1[N+](=O)[O-],active: 3.16 µM
3,Oc1oc(-c2ccccc2)nc1/C=N/c1nccs1,"inconclusive: 0.0251 µM [inhibitor, full curve, poor fit]"
4,COc1ccc(CNC(=O)COC(=O)c2cc(-c3cccs3)nc3ccccc23)cc1OC,inactive
5,CCc1ccccc1NC(=O)C1CCN(C2=NS(=O)(=O)C(c3ccc(C)c(C)c3)=C2C)CC1,inactive
6,O=C(O)CCc1ccc(-c2cccs2)n1CCc1ccccc1,"inconclusive: 20 µM [inhibitor, single point]"
7,COc1ccc(C(=O)CN2C(=O)N(c3cc(C)ccc3C)S(=O)(=O)c3ccccc32)cc1,inactive
8,COc1ccc(-c2csc(Nc3ncccc3C)n2)cc1,inactive
9,CC(=O)c1ccc(N2CCN(C(=O)CCCn3c(=O)[nH]c4ccc(Br)cc4c3=O)CC2)cc1,"inconclusive: 0.708 µM [inhibitor, full curve]"
10,c1ccc2c(c1)OCC(c1nn3c(Cn4nnc5ccccc54)nnc3s1)O2 (stereo not drawn),"inconclusive: 8.91 µM [inhibitor, partial curve]"
11,CCc1cccc(C)c1NC(=O)C(C)Sc1nc2c(c(=O)[nH]1)CCCC2 (stereo not drawn),inactive
12,COc1ccc(-c2nc(SCc3ccccc3)n(S(C)(=O)=O)n2)cc1,"inconclusive: 25.1 µM [inhibitor, partial curve]"
13,c1ccc(N2CCN(Cc3ccnc4ccccc34)CC2)cc1,inactive
14,COc1ccc(-c2noc(N3CCN(c4cccc(C)c4C)CC3)n2)cc1OC,"inconclusive: 17.8 µM [inhibitor, single point]"
15,COc1ccccc1N1CCN(C(=O)c2cc3c(s2)CCC3)CC1,"inconclusive: 31.6 µM [inhibitor, partial curve]"
16,COC(=O)c1c(C)sc(-c2c(-c3cccc(Cl)c3)[nH]c3c2c(=O)[nH]c(=O)n3C)c1O,"inconclusive: 35.5 µM [inhibitor, single point]"
17,O=C(CSc1nc(O)c(C(c2ccccc2)c2ccccc2)c(=O)[nH]1)N1CCOCC1,"inconclusive: 35.5 µM [inhibitor, single point]"
18,O=C(NCCCn1ccnc1)c1nn2c(C(F)(F)F)cc(-c3ccc(Br)cc3)nc2c1Cl,"inconclusive: 17.8 µM [inhibitor, partial curve]"
19,CCCNc1cc(=S)nc(N)[nH]1,"inconclusive: 5.01 µM [inhibitor, full curve]"
20,COCCNC(=O)c1c(N)n(-c2cccc(C)c2)c2nc3ccccc3nc12,"inconclusive: 28.2 µM [inhibitor, single point]"
21,COc1ccccc1NC(=O)COc1ccc(/C=N/NS(=O)(=O)c2ccc(C)cc2)cc1,inactive
